Experimental data reported in PubChem BioAssay AID504832 (National Center for Advancing Translational Sciences (NCATS), 2011).
Hit rate of the full screen: of about 310,000 compounds, about 18,000 (5.8%) were called active. The inconclusive results got no clear call from the source; some entries with a clear call stand among them for comparison. The call rests on the fitted dose curve; in most records, active means well fitted inhibition curve with a large enough effect; inconclusive means small, poorly fitted or top-dose-only effect, or another doubt; inactive means no such curve, though single readings can be large or run the other way. No potency is given beside an inconclusive call; the fits are too rough.

Test: Primary qHTS for delayed death inhibitors of the malarial parasite plastid, 48 hour incubation
Details: P. falciparum luciferase growth in erythrocytes; series mostly up to 28.7 µM; activity change, negative = inhibition: at the top concentration
Procedure, shortened: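 Luminescence readout; reporter = integrated firefly luciferase in P. falciparum. RBC culture at 2% hematocrit, 0.1% parasitemia final, 37 C/5% CO2; decreased signal taken as growth inhibition.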
On the % scale 0 is the no-effect control and ±100 the full control effect; potency means the concentration at half of the fitted maximal effect; tags describe the fitted curve by direction and shape.

SMILES | Potency | activity change, negative = inhibition
CCC1=C[C@@H]2CN(C1)Cc1c([nH]c3ccccc13)[C@@](C(=O)OC)(c1cc3c(cc1OC)N(C)[C@@H]1[C@@](O)(C(=O)OC)[C@H](OC(C)=O)[C@]4(CC)C=CCN5CC[C@]31[C@@H]54)C2 | active: 0.478 µM | –
O=C(OC1CCCCC1)c1cc2ccccc2oc1=O | – | inactive: 20.9%
CCN(CC(=O)Nc1ccc2c(c1)OCCO2)C(=O)C1CC(=O)N(c2ccc(OC)cc2OC)C1 (centres undefined) | – | inactive: 8.5%
O=C(NC(=S)N1CCN(c2ccccc2)CC1)c1c(F)cccc1F | inconclusive [inhibitor, partial curve, poor fit] | –
O=[N+]([O-])c1nn(-c2ccc(Cl)cc2)n(O)c1=NCc1ccncc1 | active: 2.94 µM | –
CO/N=C/NC(=O)c1c(OC)ccnc1Oc1ccccc1 | – | inactive: 7.14%
O=C(Nc1ccc2c(c1)OCCO2)C1CCN(S(=O)(=O)Cc2ccccc2)CC1 | inconclusive [inhibitor, partial curve] | –
CCC(C)[C@H]1CNC(=S)N1CCC12CC3CC(CC(C3)C1)C2 (some centres undefined) | inconclusive [inhibitor, partial curve] | –
CCCCn1c(C(C)NC(=O)c2cccs2)nc2ccccc21 (centres undefined) | inconclusive [inhibitor, single point] | –
CCN(CC(=O)Nc1ccc(C#N)c(Cl)c1)CC(=O)NC(C)(C)C | inconclusive [inhibitor, single point] | –
CC(C)(C)c1ccc(-c2csc(NC(=O)CN3C(=O)NC4(CCCCC4)C3=O)n2)cc1 | – | inactive: 17.8%
COc1ccc(/C=C(\NC(=O)c2ccccc2)C(=O)N2CCC(C)CC2)cc1 | active: 13.1 µM | –
COc1cccc(-n2nnc3c(=O)n(CC(=O)N4CCC(Cc5ccccc5)CC4)cnc32)c1 | inconclusive [inhibitor, single point] | –
Cc1nc(-c2cccnc2)sc1C(=O)Nc1cccc(C(F)(F)F)c1 | inconclusive [inhibitor, single point] | –
N#Cc1ccc(C(=O)Nc2nnc(-c3cccs3)o2)cc1 | inconclusive [inhibitor, partial curve, poor fit] | –
COc1ccc(N2CCN(C(=O)CCC(=O)N3CC(C)Oc4ccc(C)cc43)CC2)cc1 (centres undefined) | inconclusive [inhibitor, partial curve, poor fit] | –
CNC(=S)Nc1ccc(C(N)=O)cc1 | inconclusive [inhibitor, partial curve, poor fit] | –
CCCCN(C)CCNC(=O)CCn1nc(-c2ccc(C)cc2)ccc1=O | – | inactive: 10.5%
O=C(CCN1C(=O)c2ccccc2C1=O)N1CCN(c2ccccc2)CC1 | – | inactive: 10.5%
COc1cc(/C=N/Nc2ccc(C)cc2)cc(Br)c1O | inconclusive [inhibitor, single point] | –
O=C(CSc1n[nH]c(=O)n1-c1ccccc1)Nc1ccccc1 | inconclusive [inhibitor, full curve, poor fit] | –
CC1Sc2ccc(S(=O)(=O)CCC(=O)N(C)Cc3ccco3)cc2NC1=O (centres undefined) | – | inactive: -12.4%

SMILES | Potency | activity change, negative = inhibition
C/C(CCN1CCCCc2nc(C)c(C)cc21)=N\O[C@@H](C)CN1CCCCc2nc(C)c(C)cc21 | active: 13.1 µM | –
O=[N+]([O-])c1ccccc1Nc1nc(-c2cccnc2)cs1 | inconclusive [inhibitor, partial curve, poor fit] | –
CCOC(=O)N1CCN(c2c(N3CCN(c4cccc(C(F)(F)F)c4)CC3)c(=O)c2=O)CC1 | – | inactive: 0.881%
O=S(=O)(NC(=NCc1ccccc1)c1ccc(F)cc1)c1ccc(Cl)cc1 | – | inactive: -29.2%
CCOC(=O)CNS(=O)(=O)c1cc(-c2n[nH]c(=O)c3ccccc23)ccc1C | – | inactive: 9.57%
CCOC(=O)c1cnc2ccc(C(=O)OC)cc2c1NCCc1ccc(OC)c(OC)c1 | active: 10.4 µM | –
O=C(/C=C/c1cc([N+](=O)[O-])ccc1OC(F)F)Nc1cccc([N+](=O)[O-])c1 | inconclusive [inhibitor, full curve, poor fit] | –
Cc1ccc2c(c1)-c1c(ssc1=S)C(C)(C)N2C(=O)CN1C(=O)c2ccccc2C1=O | inconclusive [inhibitor, single point] | –
CC1=CC(C)(C)N(C(=O)CCl)c2cc(C)ccc21 | – | inactive: -7.71%
Oc1ccc(C(O)CNCCCCCCNCC(O)c2ccc(O)c(O)c2)cc1O (centres undefined) | active: 7.57 µM | –
COC(=O)CC/C(O)=C1\C(=O)CC(C)(C)CC1=NCc1nc2ccccc2[nH]1 | inconclusive [inhibitor, partial curve, poor fit] | –
O=C(Nc1ccc(-c2nc3ccccc3o2)cc1)c1ccc2c(c1)OCO2 | inconclusive [inhibitor, full curve, poor fit] | –
CS(=O)(=O)N(CC(=O)Nc1ccccc1C(=O)NCCc1ccccc1)c1ccc2c(c1)OCCO2 | inconclusive [inhibitor, single point] | –
CCOc1ccc(/C=N/n2c(COc3ccccc3)n[nH]c2=S)cc1OC | inconclusive [inhibitor, single point] | –
C=CCC(=O)N1CCCC(CNC(=O)c2ccc(-c3ccccc3)cc2)C1 (centres undefined) | – | inactive: -4.91%
Cc1ccc2c(c1)NC(=O)C(N1CCOCC1)(C(F)(F)F)O2 (centres undefined) | inconclusive [inhibitor, partial curve, poor fit] | –
O=C(CCCN1C(=O)/C(=C/c2ccc(F)cc2)SC1=S)NC1CCS(=O)(=O)C1 (centres undefined) | active: 9.28 µM | –
CCCCn1nc2cc(C(=O)N[C@H](C)C3CCCCC3)ccc2c1OCC | inconclusive [inhibitor, single point] | –
Cc1cc(C)c(S(=O)(=O)Nc2ccc(O)c(Sc3ncn[nH]3)c2)cc1C | – | inactive: -10.5%
COc1ccc2cc(-c3[nH]ncc3CN3C[C@@H]4CCC[C@H]3C4)ccc2c1 | – | inactive: 32.3%
CCN(CC)CCNC(=O)C1CCC(=O)N(c2ccc(OC)cc2)C1c1ccc(F)cc1 (centres undefined) | – | inactive: 7.06%
COc1ccc(Cl)cc1NC(=O)Cc1c(F)cccc1Cl | inconclusive [inhibitor, partial curve] | –
